This passage reports TGI and GI50 results from PubChem BioAssay (NCI).

Several values for one entry are separate records, joined by “and”; a condition that tells them apart may be missing. Equal entries are not always repeated.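 Results reflect a 48-hour exposure of cells in 96-well plates to compound at five concentrations. GI50 = concentration required for 50% inhibition of growth. TGI marks complete inhibition of growth.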

The test relates to NCI-H322M lung. The experiment in a line: NCI tumour cell line growth inhibition, 48 h.

With `CC(C)(CN1CCCCC1)C(=O)CC(SCCS(=O)(=O)O)c1ccccc1` (stereo not drawn), the TGI was determined as 40.5 µM. As for `CC(C)(C)c1cc(OCc2n[nH]c(=S)n2N)c(Cl)cc1OCc1n[nH]c(=S)n1N`, the TGI is over 100 µM. On to `O=C(CO)CC(=O)C(=O)Nc1cccc(C(F)(F)F)c1`, for which the TGI was over 100 µM. In the case of `O=C(OCC1CC(C2(O)CCCCC2)C(=O)O1)c1ccccc1` (stereo not drawn), the TGI is over 100 µM. The same measure, in the same setting: under `COc1cc(Cn2c3ccccc3c3cc(C)cc(OC)c32)cc2c1[nH]c1ccccc12` stands over 25 µM; under `CCOC(=O)C1=C(C)C2C3C(=O)OC(=O)C3C1(C)C1C(=O)OC(=O)C21` (stereo not drawn), over 100 µM. Take `Cc1nccc2c3ccc(OCc4cn(-c5ccc(Br)cc5)nn4)cc3n(CCCc3ccccc3)c12`: the GI50 was over 100 µM and the TGI was over 100 µM. Turning to `CC(C)OP(=O)(OC(C)C)/C(=N/Nc1ccc([N+](=O)[O-])cc1)NNC(=O)c1ccccc1`, the TGI was over 100 µM. Consider `CCCCCCCCCCCCSC1=CC(=O)C=CC1=O`, for which the GI50 was 18.7 µM and the TGI was over 50 µM. With `Cc1cnc2c(c1)C(=O)N(c1ccc(Br)cc1)S2(=O)=O`, the TGI was over 100 µM. `O=[N+]([O-])c1ccc(C2NC(=S)NC3c4cc([N+](=O)[O-])ccc4CCCC23)cc1` (stereo not drawn) yielded a TGI of over 100 µM. For `COC(=O)c1cc2c([nH]c3ccccc32)c(-c2nc3ccccc3cc2CO)n1`, the GI50 was over 100 µM and the TGI is over 100 µM. As to `N#CCCN(c1ccc(C=Nc2ccc(C(=O)O)cc2)cc1)S(=O)(=O)c1ccccc1`, the TGI was over 100 µM. `CC1=C(C(=O)Nc2ccccc2C)C(c2ccccc2O)C(C(=O)Nc2ccccc2C)=C(C)N1` yielded a TGI of 81.4 µM. On the same count and under the same terms, under `CCCCCCC(O)C(=O)OC1C2C(CC1(C)C)C(O)C13OC1C(O)C1(CO1)[C@@]23C` (stereo partly drawn) stands over 100 µM.

Molecule `Cc1ccc(/C=C2\CCS(=O)(=O)c3ccccc3C2=O)cc1` displayed a TGI of 34 µM.

`COC(=O)/C=C(C)/C=C/c1c(C)c(C(C)=O)c(C)n1C`: the TGI is over 100 µM. The same measure, in the same setting: under `Cc1cc(S(=O)(=O)Nc2nnc3c(Cl)cc(C(F)(F)F)cn23)c(S)cc1Cl` stands over 100 µM. For the molecule `O=C(O)CC(S)C(=O)O.[Li+].[Sb]` (stereo not drawn), the GI50 was 80 µM and the TGI is over 100 µM.

For `O=c1[nH]c(Br)nc2n[nH]nc12`, the TGI is over 100 µM. Still for that read-out and setting: the value for `Cc1ccc(C(CCO)CCO)nc1` was over 100 µM; that for `O=C(Nc1ccccc1)c1cc2cc(CCl)ccc2oc1=O` was over 100 µM; that for `CC(/C=C1\CCC(CN(C)C)C1=O)c1cccc(Br)c1` (stereo not drawn) was 38.5 µM. Turning to `C=C1C(=O)O[C@H]2C3OC3(C)CC/C=C(/C(=O)OC)[C@@H](OC(C)=O)[C@H](OC(=O)C3(C)OC3C)[C@H]12` (stereo partly drawn), the GI50 was 2.52 µM and 4.91 µg/mL; the TGI was 8.34 µM and 19.3 µg/mL. `C[N+]1(C)C/C(=C\C=C\c2ccccc2)C(=O)/C(=C/C=C/c2ccccc2)C1` showed a TGI of over 86.1 µM. In turn, `O=C(CC1(O)C(=O)Nc2c(Cl)cc(Cl)cc21)c1ccc([N+](=O)[O-])cc1` (stereo not drawn) returned a TGI of over 100 µM. The same measure, in the same setting: under `NC1C2C=CC(C2)C1C(=O)O` (stereo not drawn) stands over 100 µM; under `O=c1oc2c(O)c(O)cc3c(=O)oc4c(O)c(O)cc1c4c23`, over 100 µM. For the molecule `COc1cc2c(c(OC)c1)C(=O)C(=O)C(CC1(C)OCCCO1)=C2`, the TGI turned out to be 28.4 µM. `C/C1=C\CC[C@@]2(C)O[C@@H]2C[C@@H]2[C@H](C/C(C)=C/CC1)OC(=O)[C@]21CO1` displayed a TGI of over 100 µM. Consider `CC[C@@]1(O)C(=O)OCc2c1cc1n(c2=O)Cc2cc3cccc(N)c3nc2-1`, for which the GI50 was 20.7 µM and the TGI was determined as 61.4 µM. As to `CN(CCCNC(=O)c1cn(C)c2c1ccc1ccccc12)CCCNC(=O)c1cn(C)c2c1ccc1ccccc12`, the TGI was found to be 12.2 µM. Still for that read-out and setting: the value for `CCC/C=C/C=C\C(=O)O[C@@H]1[C@@H](C)[C@]2(O)[C@@H]3C=C(C)C(=O)[C@H]3CC(COC(C)=O)=C[C@H]2[C@@H]2C(C)(C)[C@]12OC(C)=O` was 74.2 µM. On the same count and under the same terms, the value for `Nc1n[nH]c(N)n1` was over 10000 µM; that for `CN(CCO)c1nc(=O)c2c(n1C1OC(CO)C(O)C(O)C1O)CCCC2` (stereo not drawn) was over 100 µM.

With `Cc1cc2nc3c(C#N)c4c(c(Cl)n3c2cc1C)CCC4`, the TGI is over 100 µM.

In the case of `CC(=O)OC1(C)CC(C)C(=O)C(C(O)CC2CC(=O)NC(=O)C2)C1` (stereo not drawn), the TGI is 0.239 µM and 0.0533 µM. Regarding `COc1cc2c(cc1OC)-c1c(c3ccc([N+](=O)[O-])cc3c(=O)n1CCCN=[N+]=[N-])C2=O`, the GI50 is over 100 µM and the TGI is over 100 µM.

In turn, `COc1ccc(OC)c(CCc2ccccc2CC(=O)O)c1` gave a TGI of over 100 µM. The molecule `COc1cc2cnc3c4cc(O)ccc4ccc3c2cc1OC` showed a TGI of over 100 µM. `O=C(NCCCN1CCN(CCCNC(=O)c2cc(-c3ccccc3)nc3ccccc23)CC1)c1cc(-c2ccccc2)nc2ccccc12` gave a TGI of 57 µM.

For the molecule `COc1cc(C(=O)c2cnc(-c3ccc4cc[nH]c4c3)[nH]2)cc(OC)c1OC`, the GI50 is 0.0687 µM and the TGI came out at 15.4 µM. For the molecule `COC(=O)/C(=N\Nc1nc(=S)[nH]n1N)C(C#N)c1ccc(Cl)cc1` (stereo not drawn), the TGI is over 100 µM. `CCCn1cc(/C=N\N=C2\C(=O)Nc3ccc(C)cc32)c2ccccc21`: the GI50 was 3.42 µM and the TGI was over 100 µM. `O=C1/C(=C/c2cccc([N+](=O)[O-])c2)Cc2ccccc21` had a TGI of over 100 µM. For `CCCCCC1CC=CC(NC(=O)OCc2ccccc2)C1/C=C/CCCC1OCCO1` (stereo not drawn), the TGI was over 100 µM. For the molecule `N#Cc1ccc(C(=O)c2cnn(-c3ccc(F)cc3)c2N)cc1`, the GI50 was over 25 µM and the TGI was over 25 µM. `CCCCCCCCCCCCCC(=O)NO`: the TGI was determined as 61.8 µM. On the same count and under the same terms, the value for `CCOC(=O)NC(C(F)(F)F)(C(F)(F)F)P(=O)(OCC)OCC` was over 100 µM.

Take `CC(Cn1c(=O)oc2ccccc21)N(C)C` (stereo not drawn): the TGI is over 100 µM. On to `O=C1c2c(c3c4ccccc4n(CCCCCCN4CCOCC4)c3c3[nH]c4ccccc4c23)C(=O)N1O`, for which the GI50 was 25.9 µM and the TGI is over 100 µM. Turning to `[O-][N+]1=C(c2ccccc2)/C(=C2/C(c3ccccc3)=[N+]([O-])c3ccccc32)Cc2ccccc21`, the TGI was 39.8 µM. On to `O=[N+]([O-])c1cc(C(F)(F)F)cc2c1SC1=Nc3ccccc3CN12`, for which the TGI is over 100 µM. `Oc1ccccc1CNCc1ccccc1O` displayed a TGI of over 100 µM. For the molecule `O=C(N/N=C/c1cc(Cl)cc(Cl)c1[O-])c1ccccc1O.O=C(N/N=C/c1cc(Cl)cc(Cl)c1[O-])c1ccccc1O.[Fe+2]`, the GI50 is 13.5 µM and the TGI was 29.4 µM. `CC(Oc1ccc2c(=O)cc(-c3ccccc3)oc2c1)C(=O)O` (stereo not drawn) yielded a TGI of over 100 µM. Take `CCN(CC)CCCNc1nccc2c(C)c3[nH]c4ccncc4c(=O)c3cc12`: the TGI stood at 6.07 µM. The same measure, in the same setting: the value for `CC(=O)Oc1ccc(C)c2c1[C@H]1CC[C@]3(C)[C@@H](OC(C)=O)CC[C@H]3[C@@H]1CC2` was 33.9 µM; that for `COc1ccc(C(=O)Nc2ccn(CCOC(=O)c3ccc(OC)cc3)c(=O)n2)cc1` was over 100 µM. `CCOC(OCC)[C@@H]1C[C@@H]2N(O[C@H](OC3CCCC3(c3ccccc3)c3ccccc3)[C@H](OC(C)=O)[C@@]2(CC)Cc2ccc(OC)c(OC)c2)O1` (stereo partly drawn) returned a TGI of over 100 µM. Consider `Cl.[O-]c1cccc2cccnc12.[O-]c1cccc2cccnc12.[O-]c1cccc2cccnc12.[O-]c1cccc2cccnc12.[Ti+4]`, for which the GI50 was 3.44 µM and the TGI is over 43.7 µM. Regarding `Cc1cc(=O)n2c(cc3cccccc32)n1`, the TGI was over 100 µM.

On to `CC1(C)C=C(N2CCN(C3=CC(C)(C)NC(C)(C)C3)CC2)CC(C)(C)N1`, for which the TGI is over 100 µM. The same measure, in the same setting: the value for `c1cc2cc(Cc3ccc4[nH]ccc4c3)ccc2[nH]1` was 36.3 µM. `CCCCNP1(NCCCC)=NP(NCCCC)(NCCCC)=NP(NCCCC)(NCCCC)=NP(NCCCC)(NCCCC)=N1`: the GI50 was 0.797 µM and the TGI stood at 32.9 µM. On to `COC1/C=C/OC2(C)Oc3c(C)c(O)c4c(O)c(c(/C=N/N(c5ccccc5)c5ccccc5)c(O)c4c3C2=O)NC(=O)C(C)=C/C=C/C(C)C(O)C(C)C(O)C(C)C(OC(C)=O)C1C` (stereo not drawn), for which the GI50 is 5.12 µM and the TGI amounted to 12.1 µM. `N#Cc1c2c(c(Nc3cccc(C(F)(F)F)c3)n3c1nc1ccccc13)CCCC2` came in with a TGI of 50.1 µM.

Molecule `COC(=O)CCc1cc(OC)c2oc(-c3ccc(OC)c(OC)c3)c(CO)c2c1` returned a TGI of over 100 µM.

In the case of `CC1=NC(=O)CNN1C1=NNC2(C(=O)N1)c1ccccc1-c1ccccc12`, the TGI is over 100 µM. `C=C1CCCC2OC(OC)CCC12` (stereo not drawn): the TGI is over 100 µM. Consider `CC1=C(N2CC2)C(=O)C(C)=C(N2CC2)C1=O`, for which the TGI worked out at 7.73 µM.

`CC(=O)c1sc2c(c1OC(=O)c1ccccc1)c(=O)n(-c1ccccc1)c(=S)n2-c1ccccc1`: the TGI amounted to 19.7 µM. The same measure, in the same setting: under `COc1cccc2c1C(=O)c1c(O)c3c(c(O)c1C2=O)CC(O)(C(C)=O)CC3OC1OC(COC(C)=O)C(OC(C)=O)C(OC(C)=O)C1OC(C)=O` (stereo not drawn) stands over 100 µM.

`CC(C)(Cl)C(Cl)CC/C(CBr)=C(\Cl)CBr` (stereo not drawn) yielded a TGI of 26.1 µM. The same measure, in the same setting: under `Nc1nc(N)c2c(-c3ccccc3)ccnc2n1` stands over 100 µM.

The molecule `CCOC(=O)CN1C(=O)c2c(NC(=O)C(=O)O)cccc2S1(=O)=O` displayed a TGI of over 100 µM. For `COc1ccccc1-c1ccc2c(N)c(C(=O)c3ccc4c(c3)OCO4)sc2n1`, the GI50 is 6.56 µM and the TGI turned out to be 25.1 µM.

Consider `COc1ccc(C(=O)/C=C/c2c(C(F)(F)F)nc3ccccn23)cc1OC`, for which the GI50 is 3.16 µM and the TGI is over 75.1 µM. With `CCCc1cn2c(/C=N/N=C(N)N)c(-c3ccc([N+](=O)[O-])cc3)nc2s1`, the TGI came out at 3.56 µM. `CCn1c(=O)c2c3ccc(O)cc3[nH]c2c2ccc(O)cc21` yielded a TGI of over 100 µM. The same measure, in the same setting: the value for `O=C(O)C1Cc2[nH]c3ccccc3c2C2CCCC12` (stereo not drawn) was over 100 µM; that for `CSc1c(S(C)=O)c2ccccc2n1C` (stereo not drawn) was over 100 µM; that for `c1ccc(N2CCN(CCCN3CCc4c([nH]c5ccccc45)C3c3cccnc3)CC2)cc1` (stereo not drawn) was over 100 µM.

Consider `CCOC(=O)c1cc(C2CCN(Cc3ccccc3)C2=O)c(C(=O)/C=C(/C)N)[nH]1` (stereo not drawn), for which the TGI was over 100 µM. In the case of `COc1ccc(-c2ccc(-c3ccc(C(=N)N)cc3)s2)cc1Cl`, the GI50 is 1.48 µM and the TGI is 2.8 µM.
